{
  "source": "paper PMC12136788",
  "binders": {"B1": {"name": "chr17:79089344:79090882:-|three_prime_utr|ENSG00000167281|control|control|control (ssRNA)", "RNA": "GGGAGUUCUACAGUCCGACGAUCAGACAGUGUGGAGCCCAGCGGCGGCGGAGCAGGCCCGGGCCUGAGCAGGCAGGCGCUGCUAGCAAGACUUGAUCUUUGUGGCCAGCUGUGCCAGGGGGCCGGCGGGGCUGAGGGGUGCGGCAACAGAGGAUUGAGCAUCA"}, "B2": {"name": "chr19:58354356:58356138:-|three_prime_utr|ENSG00000174586|control|control|control (ssRNA)", "RNA": "GGGAGUUCUACAGUCCGACGAUCUGGGAGUGCAGGGGCGGCCUUGGGUGUGGAGAACCCUGGCUGCACAGUCCCUUUGACGAUAGUCCACCGGCCACCCAGGCCUGUCUGGGGACAUGUAGGAUGGGCUCUUACCCCAGGGAGCAACAGAGGAUUGAGCAUCA"}, "B3": {"name": "chr1:113128187:113128288:+|3pUTR|ENSG00000198799|unk|total|mutant (ssRNA)", "RNA": "GGGAGUUCUACAGUCCGACGAUCUCAUACUUAUUUUCAAUCCUAAGUGUUCUCCCAUGGGCAGCAGCACUUCUUGAGCUGUUCCGUACUGCCACACCUUUUUAUGUCUUUACUAUGUCAGCCUCUGAUCAUUUUCACUUUGAACAACAGAGGAUUGAGCAUCA"}, "B4": {"name": "chr2:219567275:219567376:-|CDS|ENSG00000124006|msi1|FALSE|unique (ssRNA)", "RNA": "GGGAGUUCUACAGUCCGACGAUCUGUGUGCCCUCCGAGGGUGACUACCGCUUCCGCAUCUGCACAGUCAGCGGACAUGGCCGUAGUCCCCACGUGGUGUUCCACGGUUCUGCUCACCUUGGUGAGUUGGUCCUGCCAGACCCACAACAGAGGAUUGAGCAUCA"}, "B5": {"name": "ENSG00000168003:stop:overlap|stop_codon|ENSG00000168003|stop_codon|NA|stop_codon (ssRNA)", "RNA": "GGGAGUUCUACAGUCCGACGAUCCUGACAUCCCAGGGGCUGUAAGUGCCAACAUGACUGUGAAGGUAAGAGUUCUAGAUGGGUAGAAACUGACCGGUGGAGGGUGGGCUGGGCUUGUAGAAGUCUGUACCCAGGGGAGCCCCUCAACAGAGGAUUGAGCAUCA"}, "B6": {"name": "chr1:154207159:154207278:-|3pUTR|ENSG00000143612|msi1_unk|FALSE|overlapping (ssRNA)", "RNA": "GGGAGUUCUACAGUCCGACGAUCUUCCCCAACCCUUCCUUAUGAGCAUUUUUAGAACAUUGGCUAAGACUAUUUUCCCCCAGUAGCGCUUUUUUCUGGAUUUGCAUUCAGGUGUUAUUCUUAAUGUUUCUGUCAAAGCUUCUUCAACAGAGGAUUGAGCAUCA"}, "B7": {"name": "chr17:2300308:2300409:-|CDS|ENSG00000070366|unk|total|mutant (ssRNA)", "RNA": "GGGAGUUCUACAGUCCGACGAUCGACCCAGAAAAUAAUCGGGGACAAGAAUCCUUUCCCCGGACUGCUGGACAAGAGGAUCGCCGUCUAAAAAUUAUCAAAAGAACAAAGAAACCCGACCUGCAGAUCUAUCAGCCUGGACGACAACAGAGGAUUGAGCAUCA"}, "B8": {"name": "chrX:47636291:47636398:-|3pUTR|ENSG00000126767|unk|FALSE|unique (ssRNA)", "RNA": "GGGAGUUCUACAGUCCGACGAUCGCCUGCCCUUGGGGAGAUGAGGGAGCCCUGUCUGCGUUUUUGGAUGUGAGUAGAAGAGUUAGUUUGUUUUGUUUUAUUAUUCCUGGCCAUACUCAGGGGUCCAGGAAGAAUUUGUACCAUCAACAGAGGAUUGAGCAUCA"}, "B9": {"name": "chr10:106575406:106575507:-|3pUTR|ENSG00000108018|unk|FALSE|unique (ssRNA)", "RNA": "GGGAGUUCUACAGUCCGACGAUCUUAUGGACUGGGCAAAGCCCACUAUAAACUAUAGGAGAAAGAAGUUCUGAUAAACCUCUUAGUAUGCUCAGCCUCCUUCUUUGCUAUGUCCCUAAGCCAACAGGGUAUAACACAGGCCCUCAACAGAGGAUUGAGCAUCA"}, "B10": {"name": "chr6:36925443:36925544:+|3pUTR|ENSG00000198663|msi1|FALSE|unique (ssRNA)", "RNA": "GGGAGUUCUACAGUCCGACGAUCGAGGCAUCCCGUGGGAAAGUCCCCUAAGUCCCAUUUUGUACUUCAACAAAAAAUGACUGUAGCAGAAGAUAAGUGGAGACUUUUAUGGAUAUACUACUCAUUUUACUUAAAAUCUACCCACAACAGAGGAUUGAGCAUCA"}, "B11": {"name": "ENSG00000023516:stop:overlap|stop_codon|ENSG00000023516|stop_codon|NA|stop_codon (ssRNA)", "RNA": "GGGAGUUCUACAGUCCGACGAUCAAAAAGCUUCCAGUGAGGAGAGAUGCAAGUCGCUGUUUGAUUGGCUCUUGGAAAAUGCAUAGAGCAAACCCCAAACCAGUAUAUUUUAGUAUUUGUUUGGGGAGGGGAACAAGCCAAUAACAACAGAGGAUUGAGCAUCA"}, "B12": {"name": "ENSG00000107021:stop:overlap|stop_codon|ENSG00000107021|stop_codon|NA|stop_codon (ssRNA)", "RNA": "GGGAGUUCUACAGUCCGACGAUCACCCCAUCACAGAUGUCUGCCAGAUCCUGCAGAAAGCCAAGGAGCUCCAAGACUCAAAGUAGCCCGGCGGCAAGAGGCCCAUGUUCCGGAGAGAAGCCUCCCGACCCUGUGCCCUGGCUCCAACAGAGGAUUGAGCAUCA"}, "B13": {"name": "chr3:139561012:139561392:-|CDS|ENSG00000163864|control|control|control (ssRNA)", "RNA": "GGGAGUUCUACAGUCCGACGAUCGAAGGAUGCGCACAUCCAGGAAAUAGUGGAGAAGUUUGGCUUGGUGUGCGUGGGCCGAGUAGGUCACGACCCAAAAGGUUACAUCGCAGAAUCUCCCAUCCUACGGAUGCACCAGCACAACAACAGAGGAUUGAGCAUCA"}, "B14": {"name": "chrX:153695679:153695780:+|3pUTR|ENSG00000130821|msi1|FALSE|unique (ssRNA)", "RNA": "GGGAGUUCUACAGUCCGACGAUCGGCAGCAGAACCAAGGCAAAUAUUUCAGCUGGGCUAUACCCCUCUCCCCAUCCCUGUUAUAGAAGCUUAGAGAGCCAGCCAGCAAUGGAACCUUCUGGUUCCUGCGCCAAUCGCCACCAGCAACAGAGGAUUGAGCAUCA"}, "B15": {"name": "chr17:15628647:15628976:-|three_prime_utr|ENSG00000221926|control|control|control (ssRNA)", "RNA": "GGGAGUUCUACAGUCCGACGAUCUUUCCGGAGGCUCGGGGUCUAUAUCGACUUCCCGGGAGGGAUCCUUUCCUUCUAUGGCGUAGAGUAUGAUACCAUGACUCUGGUUCACAAGUUUGCCUGCAAAUUUUCAGAACCAGUCUACAACAGAGGAUUGAGCAUCA"}, "B16": {"name": "chr6:56640275:56640385:-|CDS|ENSG00000151914|unk|total|mutant (ssRNA)", "RNA": "GGGAGUUCUACAGUCCGACGAUCGACUUCCCGCCUGACUCCAUCUGUCACUCCAGCUUAUACACCUGGUUUCCCAUCAGGAUCCGUUCCAAAUUUCAGUUCAGGAGCCGAGCCAAAUUCAUUGCAAACUUUGAAGUUGAUGCACAACAGAGGAUUGAGCAUCA"}, "B17": {"name": "chr19:45844017:45844118:-|CDS|ENSG00000125755|msi1|FALSE|unique (ssRNA)", "RNA": "GGGAGUUCUACAGUCCGACGAUCGCCCGCCAGAGACCCAUGUUCAUGUCUGAGGUGAUCCAGGCCUAUGAAACUCUGCAUGGUAGGUCAUUGUCCUCCCCCCUCCCCCUGCCUUCUCUUCACUGGCCAGUCUGCUCUUUCUUUCAACAGAGGAUUGAGCAUCA"}, "B18": {"name": "chr19:1925360:1925461:+|3pUTR|ENSG00000227500|msi1|FALSE|unique (ssRNA)", "RNA": "GGGAGUUCUACAGUCCGACGAUCUCUCGAACUCCUGACCUCAAGUGAUCCACCCGCCUUGGCCUCCCAAAGUGCUGGGAUAAUAGGUGUCAGCCACCGCGCCCAGCCUGGAGUGGCCUUUUAUGAGAGGGGACCCGUCAAAUCCAACAGAGGAUUGAGCAUCA"}, "B19": {"name": "chr3:52707940:52708050:+|3pUTR|ENSG00000114902|msi1_unk|total|mutant (ssRNA)", "RNA": "GGGAGUUCUACAGUCCGACGAUCUUCCGUUCUCUUUAUACUUCAUUUCCCGCCCAGUUGGGUUUUGAUUUAUAUAAGCCGUUCCGACCUUCUCUUCAUAAUCUUGCUCUGAGAUGGGGAACAGAACACACAAGUAUGAAGUUUCAACAGAGGAUUGAGCAUCA"}, "B20": {"name": "chr19:46720021:46720126:-|3pUTR|ENSG00000090372|unk|FALSE|unique (ssRNA)", "RNA": "GGGAGUUCUACAGUCCGACGAUCGCCGCUCCUGGUAUCAGAGCUGCUUUCCAGAGGGCAGCACAGCCAGGGCCGGGUGUCUUUAGGGAUCAGUUUUUCCAAGACUCCAGAAGGUGCCAGGUUCUCCCCUUGAGCUCCUGCUCCCAACAGAGGAUUGAGCAUCA"}, "B21": {"name": "chr11:118751385:118751486:-|3pUTR|ENSG00000110367|msi1|FALSE|unique (ssRNA)", "RNA": "GGGAGUUCUACAGUCCGACGAUCUUGAAGUCUCUUCCCUUUCUACCCAGUACUCGAGCCCAGGGCUAGAAGUUGAAACUCACUAGUAAUGUUAAACACCAUUUUUUUUUUCUUUUUGGGGAGGAGUUGAUAUGCAACUGCAGUCAACAGAGGAUUGAGCAUCA"}, "B22": {"name": "chr12:42105817:42106069:-|CDS|ENSG00000151233|control|control|control (ssRNA)", "RNA": "GGGAGUUCUACAGUCCGACGAUCAUUGCUGCAAUGGCACCAGAACAUGAGGAACCUCGAAUAGGAUGGUAUAAUCGCUUUGCUAGGCAUCCAUAUUAUGGAAAAACUGGAGUAAACUCUGGAGUUAUGUUGAUGAACAUGACUCAACAGAGGAUUGAGCAUCA"}},
  "note": "Some of the results follow.",
  "data": [
    {"molecular_target": "MSI1 full-length (mouse, UniProt Q61474 1-362)", "sequence (Q61474 whole entry)": "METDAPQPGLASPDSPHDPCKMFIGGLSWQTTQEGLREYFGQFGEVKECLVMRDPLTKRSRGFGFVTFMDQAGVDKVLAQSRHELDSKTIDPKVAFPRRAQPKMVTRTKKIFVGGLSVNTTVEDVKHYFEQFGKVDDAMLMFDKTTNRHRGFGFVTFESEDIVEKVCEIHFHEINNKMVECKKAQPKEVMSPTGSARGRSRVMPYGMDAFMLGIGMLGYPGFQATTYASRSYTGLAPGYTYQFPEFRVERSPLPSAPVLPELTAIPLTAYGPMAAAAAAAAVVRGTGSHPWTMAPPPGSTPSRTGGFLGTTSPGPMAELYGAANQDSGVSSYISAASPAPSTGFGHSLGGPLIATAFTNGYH", "test": "nsRBNS (natural sequence RNA bind-n-seq); RBNS binding buffer (assumed for nsRBNS): 25 mM Tris pH 7.5, 150 mM KCl, 3 mM MgCl2, 0.01% Triton X-100, 500 ug/ml BSA, 20 U/ml SUPERase-In, 4 C; UNK is unkempt and MSI1 is Musashi-1; names of the RNAs are library labels; protein concentration not given here; high values mean tight binding", "units": {"binding signal": "enrichment R"}, "values": [
      {"binder": "B1", "binding signal": 0.344},
      {"binder": "B2", "binding signal": 0.543},
      {"binder": "B3", "binding signal": 0.666},
      {"binder": "B4", "binding signal": 0.342},
      {"binder": "B5", "binding signal": 0.543},
      {"binder": "B6", "binding signal": 1.02},
      {"binder": "B7", "binding signal": 0.503},
      {"binder": "B8", "binding signal": 7.37},
      {"binder": "B9", "binding signal": 0.825},
      {"binder": "B10", "binding signal": 0.596},
      {"binder": "B11", "binding signal": 0.65},
      {"binder": "B12", "binding signal": 0.38},
      {"binder": "B13", "binding signal": 0.51},
      {"binder": "B14", "binding signal": 1.95},
      {"binder": "B15", "binding signal": 0.288},
      {"binder": "B16", "binding signal": 0.383},
      {"binder": "B17", "binding signal": 0.782},
      {"binder": "B18", "binding signal": 0.362},
      {"binder": "B19", "binding signal": 0.272},
      {"binder": "B20", "binding signal": 0.456},
      {"binder": "B21", "binding signal": 1.4},
      {"binder": "B22", "binding signal": 0.381}
    ]}
  ]
}
